Laboratory results published in PubChem BioAssay AID686978 (National Center for Advancing Translational Sciences (NCATS), 2013).
Screen size: about 420,000 compounds; about 64,000 (15%) were called active. Inconclusive means that the source gave no clear call. Such entries were picked first, then a sample of the others. Calls come from the whole dose curve; as a rule, active = well fitted inhibition curve with a large enough effect; inconclusive = small, poorly fitted or top-dose-only effect; inactive = flat fitted curve, though single readings scatter. No potency is given beside an inconclusive call; the fits are too rough.

Assay: qHTS for Inhibitors of human tyrosyl-DNA phosphodiesterase 1 (TDP1): qHTS in cells in absence of CPT; note: nearly all actives have a fitted effect of over 55% in size
Settings: DT40 Tdp1-/- hTDP1 cells, no CPT, ATP luminescence, 48 h; series mostly up to 46.2 µM
Summary of the method: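 Readout: luminescence from CellTiter-Glo after 30 min in the dark at RT. Cells: DT40 Tdp1-/- with stable hTDP1, 400/well. Exposure: compounds alone, ≥48 hr, 37 °C.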
Potency is the fitted concentration of half-maximal effect; tags give direction and shape of the fitted curve.

Row | SMILES | Potency
1 | CCN(CC)c1ccc(NC(=O)c2cc(OC)cc(OC)c2)c(C)c1 | active: 1.3 µM
2 | N#Cc1cccc(NC(=O)CNc2cccc(S(=O)(=O)N3CCCCC3)c2)c1 | inconclusive [inhibitor, single point]
3 | N/C(=C\C(=O)c1cc(Cl)ccc1O)C(Cl)(Cl)Cl | active: 3.26 µM
4 | Cc1ccc(C)c2[nH]c(=O)c(CN(CCCN(C)C)C(=O)NCc3ccccc3)cc12 | active: 23.1 µM
5 | Cc1cc(=O)oc2cc(OCC(=O)N3CCN(c4ccccc4)CC3)c(Cl)cc12 | inactive
6 | COc1ccc(-c2noc(CCC(=O)N3CCN(c4cccc(OC)c4)CC3)n2)cc1 | active: 16.4 µM
7 | Cn1c(OCC2CCCO2)nc2cc(-c3ccccc3)sc2c1=O (stereo unspecified) | inconclusive [inhibitor, single point]
8 | COc1ccc(NC(=O)c2nnn(CC(=O)Nc3cccc(C)c3C)c2N)c(OC)c1 | inactive
9 | CCNC(=O)c1cc2c(c(-c3cccc(-c4cccnc4)c3)n1)[C@H](CCO)N(S(C)(=O)=O)C2 | active: 4.11 µM
10 | CCN(CC)C(=O)c1cccc(-c2csc(C(O)(c3ccccc3)C(F)(F)F)n2)c1 (stereo unspecified) | active: 16.4 µM
11 | Cn1c(=O)n(C)c2cc(N3CCOCC3)c(NC(=O)c3ccc(C(C)(C)C)cc3)cc21 | inconclusive [inhibitor, single point]
12 | Nc1ncnc(Nc2ccccn2)c1[N+](=O)[O-] | active: 23.1 µM
13 | CCOCCCn1c(SCC(=O)NCc2ccccc2)nc2c(sc3ccccc32)c1=O | inconclusive [inhibitor, partial curve]
14 | CS(=O)(=O)c1ccc2nc(NC(=O)c3cc4ccccc4o3)sc2c1 | inconclusive [inhibitor, single point]
15 | CCCCN(CCCC)Cc1cc(=O)oc2cc(C)cc(C)c12 | inconclusive [inhibitor, single point]
16 | Cc1cc(NC(=O)C2CCN(S(=O)(=O)c3cccs3)CC2)no1 | inconclusive [inhibitor, partial curve, poor fit]
17 | O=C(c1cc(COc2ccc(F)c(F)c2)on1)N1CCN(C/C=C/c2ccccc2)CC1 | active: 25.9 µM
18 | CCOC(=O)c1cc(-c2ccccc2)sc1NC(=O)CN1C(=O)NC(CC)(c2ccc(F)cc2)C1=O (stereo unspecified) | inconclusive [inhibitor, single point]
19 | CSCC[C@H](NC(=O)c1cc([N+](=O)[O-])ccc1Cl)c1nc2ccccc2[nH]1 | inactive
20 | CCCCOc1ccccc1Cn1c(=O)sc2ccccc21 | inconclusive [inhibitor, single point]
21 | O=S(=O)(NCC(c1cccnc1)N1CCN(Cc2ccccc2)CC1)c1ccccc1 (stereo unspecified) | inconclusive [inhibitor, single point]
22 | CCc1ccccc1NC(=O)C(CC)Sc1nc2cc3c(cc2c(=O)n1Cc1ccco1)OCO3 (stereo unspecified) | inconclusive [inhibitor, single point]
23 | CSc1ncc(Cl)c(C(=O)C(C#N)c2nc3c(C)cc(C)cc3c(=O)[nH]2)n1 (stereo unspecified) | active: 25.9 µM

Row | SMILES | Potency
24 | CCOc1ccccc1NC1=C(Cl)C(=O)N(Cc2ccccc2)C1=O | inconclusive [inhibitor, single point]
25 | COc1ccc(OC)c(CN2CCN(Cc3ccc(OC)c(OC)c3OC)CC2)c1 | inconclusive [inhibitor, single point]
26 | COc1cccc(NC(=O)CN(C)C(=O)c2ccc(Cl)c(S(=O)(=O)N3CCCCCC3)c2)c1 | active: 14.6 µM
27 | CSc1ccccc1NC(=O)COC(=O)c1ccccc1Cc1ccccc1 | inactive
28 | C=C[C@H]1C(C(=O)OCC)=CC[C@@H](c2ccccc2)N1S(=O)(=O)c1ccc(C)cc1 | active: 20.6 µM
29 | CCCSc1ncc(Cl)c(C(=O)Nc2ccc(S(=O)(=O)N3CC(C)OC(C)C3)cc2)n1 (stereo unspecified) | active: 16.4 µM
30 | CC(C)N1CC2(CC(c3ccccc3F)=NO2)CN1C(=O)c1ccco1 (stereo unspecified) | inactive
31 | Cc1ccn2c(CNCC3COCCO3)c(C(=O)N3CCCCCC3)nc2c1 (stereo unspecified) | inactive
32 | Cc1cccc(C(=O)N2c3ncnn3C3(CCCCC3)[C@@H]3CCCC[C@@H]32)c1 | active: 23.1 µM
33 | CC(NC(=O)c1cccc(S(=O)(=O)N2CCN(C)CC2)c1)c1ccc(Cl)cc1Cl (stereo unspecified) | inconclusive [inhibitor, single point]
34 | CCN(CC)c1ccc(N=C2C(=O)Nc3ccccc32)cc1 | active: 5.8 µM
35 | CC(=O)NC1(NC(C)=O)CCN(C)CC1 | inactive
36 | CCOc1ccccc1C(=O)NCC(=O)N(C)Cc1ccccc1C | inconclusive [inhibitor, single point]
37 | O=c1[nH]c2ccccc2cc1-c1noc(-c2cccnc2)n1 | inconclusive [inhibitor, single point]
38 | COc1ccc(CN(C)C(=O)c2cccc(S(=O)(=O)N3CCCc4ccccc43)c2)c(OC)c1OC | active: 20.6 µM
39 | Cc1ccc(Nc2nc3ccccc3nc2-n2nc(C)cc2C)c(Cl)c1 | inactive
40 | O=C(COc1ccccc1Cl)Nc1cccc(S(=O)(=O)NC2=NCCCCC2)c1 | inconclusive [inhibitor, single point]
41 | CC(Oc1ccc(Cl)cc1Cl)C(=O)NC(=S)N1CCc2ccccc21 (stereo unspecified) | inconclusive [inhibitor, partial curve, poor fit]
42 | N#C/C(=N\Nc1cc(Cl)cc(Cl)c1)c1nnc2n1CCCCC2 | inconclusive [inhibitor, partial curve, poor fit]
43 | COc1cc(COc2ccc3c(C)c(CCC(=O)O)c(=O)oc3c2)cc(OC)c1OC | inconclusive [inhibitor, single point]
44 | Cc1c(C(=O)Nc2ccc(F)cc2)oc2ccc(S(=O)(=O)N3CCCCCC3)cc12 | active: 18.4 µM
45 | Cc1c(NC(=O)c2ccc(S(=O)(=O)N(C)c3ccccc3)cc2)c(=O)n(-c2ccccc2)n1C | inactive
46 | C=CCn1c(CCn2c3ccccc3c3ccccc32)n[nH]c1=S | inactive
